# Measured values published in publication PMC5974363.
# Amino acid sequences for entries named in this document (tags omitted).
# UniProt Q9R0A0: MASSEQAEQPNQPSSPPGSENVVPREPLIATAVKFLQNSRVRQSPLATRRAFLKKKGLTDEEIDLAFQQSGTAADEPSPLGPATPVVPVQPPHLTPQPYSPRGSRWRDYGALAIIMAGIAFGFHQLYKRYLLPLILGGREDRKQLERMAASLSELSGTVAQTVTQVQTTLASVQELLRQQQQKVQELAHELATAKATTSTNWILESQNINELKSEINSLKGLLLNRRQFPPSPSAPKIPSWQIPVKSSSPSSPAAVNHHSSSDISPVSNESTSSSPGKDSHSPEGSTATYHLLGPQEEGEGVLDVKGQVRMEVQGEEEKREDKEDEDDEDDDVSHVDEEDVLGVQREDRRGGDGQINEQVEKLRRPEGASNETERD
# UniProt P70168: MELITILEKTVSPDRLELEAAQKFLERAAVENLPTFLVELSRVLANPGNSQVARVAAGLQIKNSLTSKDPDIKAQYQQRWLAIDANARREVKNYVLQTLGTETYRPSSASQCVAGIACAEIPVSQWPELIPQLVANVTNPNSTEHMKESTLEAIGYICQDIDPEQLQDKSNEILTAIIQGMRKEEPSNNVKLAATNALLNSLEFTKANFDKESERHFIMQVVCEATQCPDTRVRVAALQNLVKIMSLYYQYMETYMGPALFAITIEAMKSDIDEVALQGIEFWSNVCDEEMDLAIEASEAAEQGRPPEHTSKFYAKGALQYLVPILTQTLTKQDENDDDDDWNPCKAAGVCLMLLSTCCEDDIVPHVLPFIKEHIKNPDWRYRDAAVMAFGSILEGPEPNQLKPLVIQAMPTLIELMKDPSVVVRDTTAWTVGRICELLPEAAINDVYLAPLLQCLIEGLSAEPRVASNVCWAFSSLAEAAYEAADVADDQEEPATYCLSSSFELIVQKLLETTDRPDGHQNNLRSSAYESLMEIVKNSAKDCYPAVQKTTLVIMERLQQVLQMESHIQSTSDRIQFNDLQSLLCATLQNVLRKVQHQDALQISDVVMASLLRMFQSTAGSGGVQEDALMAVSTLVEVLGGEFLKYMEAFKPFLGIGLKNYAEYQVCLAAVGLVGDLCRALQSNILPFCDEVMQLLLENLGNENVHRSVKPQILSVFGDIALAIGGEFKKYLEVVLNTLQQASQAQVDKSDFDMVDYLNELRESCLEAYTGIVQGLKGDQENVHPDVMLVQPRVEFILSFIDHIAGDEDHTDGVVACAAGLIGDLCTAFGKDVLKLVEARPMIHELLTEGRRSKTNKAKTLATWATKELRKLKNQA
# Results are given in words; binding and its absence hold for the method and conditions named. In cells and extracts the contact can be indirect. Some binding calls cover weakened binding; strength is not graded here. For some assays here: Where a sequence is shown, tags or fusion partners need not be part of it.
# T1: Flag-S100A11 (1-41) (mouse) (UniProt P50543)
# T1 sequence: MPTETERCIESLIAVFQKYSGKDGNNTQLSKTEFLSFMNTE
# T2: Flag-S100A11 (42–98) (mouse) (UniProt P50543)
# T2 sequence: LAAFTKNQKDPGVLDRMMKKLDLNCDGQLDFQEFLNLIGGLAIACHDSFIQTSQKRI
# T3: Flag-S100A11 (WT) (mouse) (UniProt P50543)
# T3 sequence: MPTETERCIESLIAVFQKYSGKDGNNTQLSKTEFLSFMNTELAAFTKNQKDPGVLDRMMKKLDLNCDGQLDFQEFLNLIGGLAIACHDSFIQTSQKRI
# T4: annexin A1 (mouse (endogenous in N2a)) (UniProt P10107)
# T4 sequence: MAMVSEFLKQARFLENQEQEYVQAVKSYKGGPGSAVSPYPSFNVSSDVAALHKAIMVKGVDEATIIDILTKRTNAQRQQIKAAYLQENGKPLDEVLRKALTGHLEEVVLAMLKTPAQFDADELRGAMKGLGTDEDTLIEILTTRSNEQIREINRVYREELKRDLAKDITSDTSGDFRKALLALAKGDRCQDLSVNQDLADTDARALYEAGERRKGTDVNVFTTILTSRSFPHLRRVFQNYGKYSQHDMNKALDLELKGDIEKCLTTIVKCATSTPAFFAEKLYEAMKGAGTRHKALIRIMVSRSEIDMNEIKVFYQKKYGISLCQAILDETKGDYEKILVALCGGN
# Key:
# [1] = biological target: T1, Flag-S100A11 (1-41) (mouse); experiment: co-IP; lysates of N2a cells transfected with Flag-S100A11 or GFP-ANXA1 constructs, partner endogenous; anti-Flag, anti-GFP or anti-ANXA1 antibody overnight at 4 °C, Protein A/G plus agarose, western blot
# [2] = biological target: T2, Flag-S100A11 (42–98) (mouse); experiment: as above
# [3] = biological target: T3, Flag-S100A11 (WT) (mouse); experiment: as above
# [4] = biological target: Peroxisome biogenesis protein 14 (mouse (endogenous in N2a)) (UniProt Q9R0A0); experiment: co-IP; endogenous proteins in N2a cell lysates, with or without OGD/R (OGD 1 h, reoxygenation 24 h); lysate diluted fourfold in IP buffer, antibody overnight at 4 °C, Protein A/G plus agarose 4 h, five washes, western blot
# [5] = biological target: T4, annexin A1 (mouse (endogenous in N2a)); experiment: as above
# [6] = biological target: T4, annexin A1 (mouse (endogenous in N2a)); experiment: co-IP; lysates of N2a cells transfected with Flag-S100A11 or GFP-ANXA1 constructs, partner endogenous; anti-Flag, anti-GFP or anti-ANXA1 antibody overnight at 4 °C, Protein A/G plus agarose, western blot
molecule,measurement,setting,value
importin β (from UniProt P70168 1-876),binding,[1],no binding
same,binding,[2],no binding
same,binding,[3],no binding
"S100A11 (protein, UniProt P50543 1-98) MPTETERCIESLIAVFQKYSGKDGNNTQLSKTEFLSFMNTELAAFTKNQKDPGVLDRMMKKLDLNCDGQLDFQEFLNLIGGLAIACHDSFIQTSQKRI",binding,[4],binds
same,binding,[5],binds
"Flag-S100A11 (WT) (protein, UniProt P50543 1-98) MPTETERCIESLIAVFQKYSGKDGNNTQLSKTEFLSFMNTELAAFTKNQKDPGVLDRMMKKLDLNCDGQLDFQEFLNLIGGLAIACHDSFIQTSQKRI",binding,[6],binds
"Flag-S100A11 (42–98) (domain or fragment, UniProt P50543 42-98) LAAFTKNQKDPGVLDRMMKKLDLNCDGQLDFQEFLNLIGGLAIACHDSFIQTSQKRI",binding,[6],binds
"MPTETERCIESLIAVFQKYSGKDGNNTQLSKTEFLSFMNTE (domain or fragment, UniProt P50543 1-41) [Flag-S100A11 (1-41)]",binding,[6],no binding
